In this assay the test system is NCI-H322M lung. The assay can be described thus: DTP human tumour cell line panel, 48 h.

Molecules are shown by their SMILES.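 Step 1: Grow cells in 96-well plates. Step 2: Expose to compound for 48 hours at 5 concentrations. Step 3: Interpolate endpoints linearly; if unreached, use highest concentration. Here, GI50 denotes the concentration required for 50% inhibition of growth. TGI: concentration producing complete growth inhibition.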

By TGI is commonly meant the concentration at which net growth stops. A lower TGI goes with more potent growth arrest. For `CCCCCCCCCCC(O)CCCCCCC(=O)O` (centres undefined), the TGI stood at 56.7 µM. The same measure, in the same setting: in the case of `Cc1cc(Cc2cc(Cc3cc(C)cc(C(C)(C)C)c3O)c(C)cc2C)c(O)c(C(C)(C)C)c1` it was 32.3 µM; in that of `Cc1ccc(NC(=O)SCCC(=O)O)cc1`, > 100 µM; in that of `O=S(/C=C/C=C/S(=O)(=O)c1ccccc1)c1ccccc1` (centres undefined), > 10 µM. For the compound `Cc1cc([N+](=O)[O-])ccc1Sc1c2ccccc2nc2ccccc12`, the TGI is > 100 µM.

The GI50 is the concentration at which growth is held to half of that of the control. For `COC(=O)C1=CN(CC2=CC(=O)C(C)=CC2=O)C=C(C(=O)OC)C1c1cc(OC)ccc1OC`, the GI50 was 18.8 µM and the concentration for total growth inhibition (TGI) is 40.3 µM. As for `NC(=O)NN/C=C(/C=Nc1ccccc1)[N+](=O)[O-]`, the concentration for total growth inhibition (TGI) was > 100 µM. Still for that read-out and setting: the same measure for `c1ccc2c(c1)CCN2CCN1CCc2ccccc21`: > 10 µM; for `COC(=O)/C1=C/c2c([nH]c3ccccc23)/C(C(=O)OC)=C\c2c1[nH]c1ccccc21`: > 50 µM. On the same count and under the same terms, the same measure for `COc1ccc(OC)c2c1C(=O)C(=O)C(Cl)=C2O`: > 100 µM. Same read-out and setting: in the case of `CN/N=C(\C)c1c(O)cc(C)oc1=O` it was > 100 µM; in that of `O=C(O)CSc1ccc(N=C=S)cc1`, > 100 µM. Take `[N-]=[N+]=NC1C2CC3C4CC5CC3[C@H](C2)C(C5)C41` (some centres undefined): the TGI is > 100 µM. Same read-out and setting: the same measure for `CC1(C)C2CCC13C(=O)C1OC3(C2)C2C(=O)N(c3ccccc3)C(=O)C12` (centres undefined): > 100 µM. As for `COc1cc(-c2csc(NC(=O)Nc3ccc(Cl)c(C(F)(F)F)c3)n2)cc(OC)c1OC`, the GI50 was 1.56 µM and the total growth inhibition concentration (TGI) turned out to be 5.03 µM.

In the case of `Cc1ccc(S(=O)(=O)N(CCN2C(=O)c3ccccc3C2=O)c2cc3c4c(c2)Oc2cc(N(CCN5C(=O)c6ccccc6C5=O)S(=O)(=O)c5ccc(C)cc5)cc5c2C4(C)c2c(cc(N(CCN4C(=O)c6ccccc6C4=O)S(=O)(=O)c4ccc(C)cc4)cc2O5)O3)cc1`, the TGI was > 100 µM.

Turning to `CC1=NN(C(=O)CC(=O)Nc2ccccc2)C(=O)C1N=Nc1ccc(C(=O)O)cc1` (centres undefined), the TGI is > 100 µM.

As to `COC(=O)C1Cc2c([nH]c3ccccc23)C(c2ccccc2O)N1` (centres undefined), the concentration for total growth inhibition (TGI) is > 100 µM.

Consider `O=C1N[C@@H]2[C@@H](O)[C@@H](O)[C@H](O)C[C@H]2c2cc3c(c(O)c21)OCO3`, for which the 50% growth inhibitory concentration (GI50) was 0.079 µM and the TGI came out at 0.561 µM.

Turning to `CN(C)CCCNCc1ccc(-c2ccc(F)c(Cl)c2)o1`, the GI50 was 14.2 µM and the TGI is 29.7 µM.

The record behind these values is PubChem BioAssay (NCI).
